We go through 167 variants from the RNAGym collection of RNA variant scans (doi:10.7554/elife.90254).

Read counts are not given, so values of variants with three or more changes are uncertain.

Sequences and labels used below:
B1: LINE1-mini (parent)
chain: GGCAGAGCUCAACACAGCGUGGCAAAGUGGCUGUGGCUAGACUGCC

The data set covers variants of B1. In words: self-cleavage, relative activity (ratio to wild type); higher = more cleavage; in vitro, sequencing; the parent is a self-cleaving ribozyme.
On to G19A G22A A26U G27U, for which the self-cleavage stood at 0.34.
Under C18U G30A C31A A39G stands 0.06.
The value for G19A G21C G33C U43G was 0.
Under C18U U38G C42G stands 0.03.
Consider C18U G30U U43A, for which the self-cleavage worked out at 0.03.
Take G19A U43G C45U: the self-cleavage amounted to 1.63.
The value for G19A U32C C37A G44A was 0.01; that for C18U G33U G40U was 0.02.
For C18U G22U G33A C37A, the self-cleavage was found to be 0.16.
For the variant C18U U38G C46G, the self-cleavage was 0.
Under C18U A26C A41C stands 0.1.
Under G19C G27U U32A G44C stands 0.1; under G19C U20G A24C, 0.26.
Regarding C18U G22C U28C, the self-cleavage came to 0.31.
The value for G19A U20C G44C was 0.19; that for G19A U20G C37A was 0.02.
Regarding G19A G21A A41U, the self-cleavage was found to be 1.31.
The value for G19C C23A A25C A39G was 0.03.
Under C18U G33U A39G stands 0.03; under C18U G30A C31A C42A C45U, 0.04.
The value for G19A A41C C45A was 0.06; that for G19A U20A C31A A39G was 0.04.
Turning to G19A C31A C37G, the self-cleavage is 0.08.
Under C18U G29C G44A stands 0.77; under C18U G19U G22U, 0.52; under G19C U20A A25C A26C G27C, 0.15.
Under G19A C23U A26G G30U stands 0.82; under G19C G21A A24U C37U, 0.01.
Under C18U G21A G27C G36A stands 0.1; under C18U G27A U34A, 0.38.
On to G19A U28C G33A A41U, for which the self-cleavage stood at 0.03.
The value for G19A G21C C37U was 0.02; that for G19A G36A U38C was 0.13.
G19C U20C G21U: the self-cleavage was found to be 0.16.
Under C18U G19U A24C C37U stands 0.02; under G19A U38A G44U, 0.19.
Under G19A G21U C45A stands 0.26; under G19A G36A C45G, 0.19.
The value for C18U G36U C45A was 0.05; that for C18U G22C U34A was 0.09; that for G19C U20G U32A was 0.13.
Regarding C18U C37A U38G, the self-cleavage was found to be 0.
Under G19C U32A A39C stands 0.04; under G19C C23G G27C G30A C37A, 0.01.
The value for C18U G29C C46A was 0.25; that for G19C G21U C37U was 0.02.
Take G19C G21U C37A: the self-cleavage is 0.02.
The value for G19A U20A G21C G29A was 0.1.
On to C18U A25U U34A, for which the self-cleavage was 0.02.
As to G19C U20A G27A U32C C37U, the self-cleavage was found to be 0.03.
Turning to G19A G22A G35A, the self-cleavage stood at 0.09.
Under G19C G29C A39U G40C stands 0.03; under G19C C23U A25G, 0.25; under G19A G22C C46A, 1.32.
For G19A G21A G22A C23G A26U, the self-cleavage was determined as 0.63.
Under G19C U28G C37A stands 0.01.
Regarding G19C U28G C37G, the self-cleavage stood at 0.01.
The value for G19C A26U G30A was 1.21; that for C18U G19C C23A G36U A39U G44U was 0.
The value for C18U G36C U38A was 0.04; that for C18U U28G G30U G33U C37A was 0.22; that for C18U G33C U38A was 0.01.
The value for G19C A25U A26C was 0.42.
With C18U U34A G44A, the self-cleavage came out at 0.
Take G19C G22A A41U C42A: the self-cleavage turned out to be 0.36.
The value for G19C A25U G29A G40C was 0.02; that for C18U A26U C37G U38G A41U was 0.02.
Under G19C G21A G44A C46G stands 0.02; under G19A U20G C23A, 0.81; under C18U G19C G22C A26U G35U, 0.01.
The value for G19A A26G C37A was 0.03; that for G19A C23U A25G G30U was 0.22; that for G19C C45A C46G was 0.46.
Consider G19A G27C C31G C45A, for which the self-cleavage was determined as 0.11.
Under G19A A26C C37U A41G C42A stands 0.03; under C18U G27U G29A U38C C45G, 0.07; under C18U U32G G44U, 0.07.
Take G19A U20G A26C G30U: the self-cleavage is 0.25.
The value for C18U U32G A41U was 0.11; that for C18U G21U A25C U43A C45A was 0.01.
Under C18U G29C G33C U43G stands 0; under G19A G29U U38G, 0.02.
Take C18U G22A C46A: the self-cleavage turned out to be 0.81.
The value for C18U G29A A39C A41C was 0.05; that for G19C G21U U28A U38A was 0.05; that for C18U G19U G21A U32C was 0.04.
Under C18U G29A G30U C37A stands 0.
Under C18U G22U C31U stands 0.06; under G19A G33A C45A C46A, 0.03; under C18U G22A A41C C46U, 0.02.
For the variant C18U U32G C45U, the self-cleavage came out at 0.03.
The value for C18U C23U A39U was 0.35; that for G19C U32A C37U was 0.04.
Under G19A A26C G40U stands 0.13.
Turning to G19A A24U G30C C37U A41G, the self-cleavage worked out at 0.04.
The value for G19A U20A U34C was 0.12; that for G19C G22C U28G G35A was 0.21.
Turning to G19A U20A C31G G36U, the self-cleavage was found to be 0.06.
Turning to G19C U20G C37A U43C, the self-cleavage is 0.84.
In the case of G19A C23U U32C, the self-cleavage amounted to 0.33.
Under G19C C37A A41G G44A stands 0; under C18U G33U U38C A39G, 0.19; under G19A C31U C42G, 0.04.
The value for G19C G35U C37U was 0.02.
Under G19C G21U G33C G44A stands 0.18.
On to G19C U20C A39U, for which the self-cleavage turned out to be 0.69.
Regarding G19A G36U C42G, the self-cleavage was 0.02.
The value for G19A G22U G33C A41G was 0.05; that for G19C C31A G44C was 0.08.
The value for G19C G22C A24U A25U C37U was 0.01; that for C18U G27A G29U G44U C46U was 0.07; that for G19C G30U G33U was 0.14.
Under C18U G29U C37G A41U G44U stands 0.01; under G19C G22C G27U G30C, 0.14; under G19A G22A G27U G33A, 0.33.
For G19A A25U G29A, the self-cleavage stood at 1.58.
The value for C18U U20A G22C was 0.1; that for G19C U20A C23U A26U was 0.36; that for G19A G21U C37U G44U was 0.13.
The value for G19C G21U U38G was 0.01.
The value for C18U C37U A41U was 0.05.
As for C18U G33U U34A, the self-cleavage came to 0.07.
The value for C18U G22C A26C C31U was 0.08; that for C18U A26U G33A was 0.01.
As to C18U G29C C37A, the self-cleavage was found to be 0.04.
As to C18U G35A C37U U38G G40A, the self-cleavage was 0.01.
Under G19C G22U A25C C46U stands 0.21.
The value for C18U U20A C42U was 0.1; that for C18U U20A C42G was 0.04; that for C18U C23U C45A was 0.55.
Turning to G19C G27C G44C C46U, the self-cleavage was 0.05.
The value for G19A G21U G36C was 0.45; that for G19A U28A C37G U38A was 0.01.
For the variant C18U A26C G30U, the self-cleavage is 0.69.
The value for G19A U20C G36U was 0.04; that for G19A G29C G36C was 0.08; that for G19C G21A G35U was 0.05.
Under G19C A25C A39U stands 0.12; under C18U U20G G22A, 0.74.
The value for G19C U20C C23A was 0.53; that for C18U G35U G36A was 0.03; that for C18U U28C C46A was 0.53.
Regarding C18U C23U A24C A25U G44C, the self-cleavage worked out at 0.04.
The value for G19C G36C C37G was 0.1; that for G19A G27A U28G was 0.58.
The value for G19C A24C G33C was 0.04; that for G19C C31U G40A G44A C46U was 0.03.
For C18U U32G G40C, the self-cleavage is 0.04.
The value for G19C C31U G35U C37A was 0.05.
Under G19A G27U A39U A41C C46A stands 0.02; under C18U U32A U38C, 0.04.
The value for G19C A25U U34G was 0.09.
On to G19A C23U G33A G44A, for which the self-cleavage amounted to 0.13.
The value for G19A G29U G36A C37U was 0.16.
Consider C18U C31G G33A G35U A41U, for which the self-cleavage came out at 0.03.
The value for G19C A26G G30A C31U was 0.25.
The value for G19A G21C G29U G44U C45A was 0.03; that for C18U C31U U34C was 0.02; that for G19C U20A U34C was 0.29.
The value for G19C G21A A24U was 0.17; that for C18U U28C G30C G35U was 0.06.
G19A G27A G29U C31U A39U: the self-cleavage came to 1.06.
The value for G19C A39C U43A was 0.04; that for C18U C23A G29A G35C was 0.06; that for G19A U28C A39G C42U was 0.03.
The value for G19A U28G C31G G33U was 0.08; that for C18U U20G U28G was 0.09.
